# Reference: the supplement of paper PMC8728848
# The list shows a part of the results.
# B1: GS13455A-bfa-343-25-343 (Bacteroides fragilis) (protein)
# chain: KDEIQIVDQDTSWQMDNKYIEEDIREQLGIDPFTDLVYLGYYGNPYTQLEAINDLVNTTLVGKNELSFKVKVTKPYKEDIKVNLMKEDKLVTDFPEMAEGIPLFPSENCTFEGGVLKAGELETTVKLTLKDVEKLNNLSGYVMAIKLTMEGSHEHLAIARTRSSYFVKLNLSIRLDNIDSSNKKIEGKGFNKEISFKSDIRPDKLGSLNDGNFTANNWYTSNANNYLTIILPEKQSLKGFRLDTNTSPSGSYMLKSCRVMVETPDGNWVNHGVFDRKSMDGIAYISFKKPVECTKVRFENMMAFNGRFSVDVNEVTAFR
# Columns and labels:
# Assay in all cases: glycan array binding signal (z-score within array); higher = stronger binding
# Conditions in all cases: glycan notation: IUPAC condensed, linker removed
# [1] = target: Gal(b1-4)GlcNAc(b1-3)Gal(b1-4)GlcNAc(b1-6)[Gal(b1-3)]GalNAc
# In short: (§1)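 Negative Z-scores can be read as non-binding. The Z-score is calculated within each array and then averaged across arrays of one protein sequence at different concentrations or buffers and across linkers. Arrays, 3228 in all, were curated from the Consortium for Functional Glycomics database and kept only where the protein sequence was available.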
# [2] = target: Gal(b1-4)GlcNAc(b1-3)Gal(b1-4)[Fuc(a1-3)]GlcNAc(b1-3)Gal(b1-4)[Fuc(a1-3)]GlcNAc
# In short: as §1
# [3] = target: Gal(b1-4)GlcNAc(b1-3)GalNAc
# In short: as §1
# [4] = target: Gal(b1-4)GlcNAc(b1-3)[Fuc(a1-3)GlcNAc(b1-6)]Gal(b1-4)Glc
# In short: as §1
# [5] = target: Gal(b1-4)GlcNAc(b1-3)[Gal(b1-4)GlcNAc(b1-6)]Gal(b1-4)GlcNAc
# In short: as §1
# [6] = target: Gal(b1-4)GlcNAc(b1-3)[GlcNAc(b1-6)]Gal(b1-4)GlcNAc
# In short: as §1
# [7] = target: Gal(b1-4)GlcNAc(b1-6)Gal(b1-4)GlcNAc
# In short: as §1
# [8] = target: Gal(b1-4)GlcNAc(b1-6)GalNAc
# In short: as §1
# [9] = target: Gal(b1-4)GlcNAc(b1-6)[Gal(b1-3)]GalNAc
# In short: as §1
# [10] = target: Gal(b1-4)GlcNAc(b1-6)[Gal(b1-4)GlcNAc(b1-3)]GalNAc
# In short: as §1
# Gal(b1-4)GlcNAc6P = target: Gal(b1-4)GlcNAc6P
# In short: as §1
# Gal(b1-6)Gal = target: Gal(b1-6)Gal
# In short: as §1
# Gal3S(b1-3)GalNAc = target: Gal3S(b1-3)GalNAc
# In short: as §1
# Gal3S(b1-3)GlcNAc = target: Gal3S(b1-3)GlcNAc
# In short: as §1
# [11] = target: Gal3S(b1-3)[Fuc(a1-4)]GlcNAc
# In short: as §1
# Gal3S(b1-4)Glc = target: Gal3S(b1-4)Glc
# In short: as §1
# Gal3S(b1-4)Glc6S = target: Gal3S(b1-4)Glc6S
# In short: as §1
# Gal3S(b1-4)GlcNAc = target: Gal3S(b1-4)GlcNAc
# In short: as §1
# [12] = target: Gal3S(b1-4)[Fuc(a1-3)]Glc6S
# In short: as §1
# [13] = target: Gal3S(b1-4)[Fuc(a1-3)]GlcNAc
# In short: as §1
# [14] = target: Gal3S(b1-4)[Fuc(a1-3)]GlcNAc6S
# In short: as §1
# Gal3S4S(b1-4)GlcNAc = target: Gal3S4S(b1-4)GlcNAc
# In short: as §1
# Gal3S6S(b1-4)GlcNAc = target: Gal3S6S(b1-4)GlcNAc
# In short: as §1
# Gal3S6S(b1-4)GlcNAc6S = target: Gal3S6S(b1-4)GlcNAc6S
# In short: as §1
# Gal4S(b1-4)GlcNAc = target: Gal4S(b1-4)GlcNAc
# In short: as §1
# Gal4S6S(b1-4)GlcNAc = target: Gal4S6S(b1-4)GlcNAc
# In short: as §1
# Gal6P(b1-4)GlcNAc = target: Gal6P(b1-4)GlcNAc
# In short: as §1
# Gal6S(b1-3)GlcNAc = target: Gal6S(b1-3)GlcNAc
# In short: as §1
# Gal6S(b1-3)GlcNAc6S = target: Gal6S(b1-3)GlcNAc6S
# In short: as §1
# Gal6S(b1-4)Glc = target: Gal6S(b1-4)Glc
# In short: as §1
# Gal6S(b1-4)Glc6S = target: Gal6S(b1-4)Glc6S
# In short: as §1
# Gal6S(b1-4)GlcNAc = target: Gal6S(b1-4)GlcNAc
# In short: as §1
# Gal6S(b1-4)GlcNAc6S = target: Gal6S(b1-4)GlcNAc6S
# In short: as §1
# GalNAc(a1-3)Gal = target: GalNAc(a1-3)Gal
# In short: as §1
# GalNAc(a1-3)GalNAc = target: GalNAc(a1-3)GalNAc
# In short: as §1
# [15] = target: GalNAc(a1-3)GalNAc(b1-3)Gal(a1-4)Gal(b1-4)Glc
# In short: as §1
# [16] = target: GalNAc(a1-3)GalNAc(b1-3)Gal(a1-4)Gal(b1-4)GlcNAc
# In short: as §1
binder,measurement,setting,value
B1,glycan array binding signal (z-score),[1],-0.023
same,glycan array binding signal (z-score),[2],-0.07
same,glycan array binding signal (z-score),[3],-0.395
same,glycan array binding signal (z-score),[4],-0.429
same,glycan array binding signal (z-score),[5],0.03
same,glycan array binding signal (z-score),[6],-0.425
same,glycan array binding signal (z-score),[7],0.122
same,glycan array binding signal (z-score),[8],0.827
same,glycan array binding signal (z-score),[9],-0.416
same,glycan array binding signal (z-score),[10],-0.037
same,glycan array binding signal (z-score),Gal(b1-4)GlcNAc6P,-0.411
same,glycan array binding signal (z-score),Gal(b1-6)Gal,-0.307
same,glycan array binding signal (z-score),Gal3S(b1-3)GalNAc,-0.267
same,glycan array binding signal (z-score),Gal3S(b1-3)GlcNAc,-0.102
same,glycan array binding signal (z-score),[11],0.109
same,glycan array binding signal (z-score),Gal3S(b1-4)Glc,1.7
same,glycan array binding signal (z-score),Gal3S(b1-4)Glc6S,-0.189
same,glycan array binding signal (z-score),Gal3S(b1-4)GlcNAc,-0.033
same,glycan array binding signal (z-score),[12],1.38
same,glycan array binding signal (z-score),[13],-0.28
same,glycan array binding signal (z-score),[14],-0.293
same,glycan array binding signal (z-score),Gal3S4S(b1-4)GlcNAc,-0.331
same,glycan array binding signal (z-score),Gal3S6S(b1-4)GlcNAc,-0.168
same,glycan array binding signal (z-score),Gal3S6S(b1-4)GlcNAc6S,1.68
same,glycan array binding signal (z-score),Gal4S(b1-4)GlcNAc,1.01
same,glycan array binding signal (z-score),Gal4S6S(b1-4)GlcNAc,0.197
same,glycan array binding signal (z-score),Gal6P(b1-4)GlcNAc,-0.523
same,glycan array binding signal (z-score),Gal6S(b1-3)GlcNAc,-0.365
same,glycan array binding signal (z-score),Gal6S(b1-3)GlcNAc6S,-0.888
same,glycan array binding signal (z-score),Gal6S(b1-4)Glc,-0.442
same,glycan array binding signal (z-score),Gal6S(b1-4)Glc6S,0.768
same,glycan array binding signal (z-score),Gal6S(b1-4)GlcNAc,1.12
same,glycan array binding signal (z-score),Gal6S(b1-4)GlcNAc6S,0.412
same,glycan array binding signal (z-score),GalNAc(a1-3)Gal,0.262
same,glycan array binding signal (z-score),GalNAc(a1-3)GalNAc,-0.437
same,glycan array binding signal (z-score),[15],0.862
same,glycan array binding signal (z-score),[16],0.981
